± gives the standard deviation of the averaged measurements. The list shows a part of the results.
test system: PfAP2-I AP2 domain 3 (GST-tagged); assay: gcPBM binding intensity (ln(normalized median fluorescence intensity)); higher = stronger DNA binding
How it was run: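 An Agilent 4 × 180k array of primer-extended double-stranded 36-bp intergenic genomic probes, with negative controls, was incubated for 1 h with GST-tagged P. falciparum DNA-binding domains expressed in E. coli. Alexa488 anti-GST antibody detected bound protein, scanned at 488 nm. Binding intensity is the highest Masliner-normalised natural-log median intensity across replicate spots of either probe orientation.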

Sequence	gcPBM binding intensity (ln)
CATTTTTCTATATGTGCATGTAAGATAAGAATAATT [TGCATGCA_site107]	8.36 ± 0.49
TTTCGTCATTTTGTTTTTAATTCTACAATTTAGTTA [XGTACX_negctrl_site286]	7.75 ± 0.69
TCATATAATATTTATATGCACACTTTTCTATATATA [CACACA_site4075]	9.4 ± 0.15
TAAAATAAAAGTGAAACACACAGTATTTTACAACAT [CACACA_site3811]	7.38 ± 0.76
AAAATAGCTGTATAGAGTACATATAAATAATGTTGT [XGTACX_site5692]	7.57 ± 0.58
TGCAAAAAATTCCACACACACACACGCATATAAATA [CACACA_site6696]	7.95 ± 0.38
AAAAAAAAAAAACACACACACACACCCAAATATATA [CACACA_site150]	7.91 ± 0.2
CATAATACATATAACACACACAATTATACATAAAAT [CACACA_site3233]	7.88 ± 0.33
AAAAAAAAAAAAAAAAAAAAAAAAAAAATACGAAAG [GTGCAC_negctrl_site729]	9.87 ± 0.18
ATATATATATATATATGTACTTAAAAAATATATACA [XGTACX_site8952]	9.34 ± 0.36
TATTTTTTTTGTGTGTGTCCTCATGTAATACTGCAA [XGTACX_site1380]	8.17 ± 0.24
CTTTTTAATTAATACACACACACACGGATATAAATA [CACACA_site7145]	8.23 ± 0.47
TATATTAAACTTTGCACACATAATTTAACTACAAAG [CACACA_site3441]	8.86 ± 0.11
AATCATTTATTGATGGTGCAATATACCATCTAATGA [GTGCAC_site9440]	11.4 ± 0.76
TCTCATTTTCCCTAAAAAAAAAAATAAATAAAAATA [TGCATGCA_negctrl_site580]	7.42 ± 0.4
TTTTTCCATATTGTAGCATGCAGTATATATATCATG [TGCATGCA_site530]	8.01 ± 0.77
ATATTATTTATGTATGCATGCGGCGAAATGGGCTTG [TGCATGCA_site28]	8.38 ± 0.33
AATGGGTTACACATATGTACATAAAATATAAAAAAT [XGTACX_site3440]	8.06 ± 0.73
ATTTCTATAAAAATAATCTACATTTTTTTTTTTTTT [CACACA_negctrl_site917]	7.75 ± 0.61
TATATACATATATATATATGTATAGATAGATACATT [CACACA_negctrl_site1511]	7.7 ± 0.39
TAACCACAATTTTAATGTACATATATATTTATATAT [XGTACX_site8968]	7.72 ± 0.3
AATATTTTACAATACACATGCAAATAATATTCTAAA [TGCATGCA_site618]	7.73 ± 0.65

Sequence	gcPBM binding intensity (ln)
TTTTGAAAAAATTTTTATAAAAGAATAAAATTATTA [XGTACX_negctrl_site570]	7.5 ± 0.3
TAAAAATGGAAACACACACACATAAATATATTTTAT [CACACA_site2513]	7.75 ± 0.74
CAATGCAAGGCTTAAAAAAATGGGCATATTATATAT [GTGCAC_negctrl_site304]	7.79 ± 0.83
TTTTTTTACAACATTACACACAAATATTCTGGGTTA [CACACA_site3755]	7.87 ± 0.69
AATATTATATTAAAATGTACAAAAATGAATTACTTT [XGTACX_site1473]	7.7 ± 0.55
TCACATTTTGGACACGTGCACATATATTTGATACAT	9.48 ± 0.33
AAAATTAATTATTACAAAAATGAAAAGACATATTTT [GTGCAC_negctrl_site735]	7.37 ± 0.56
ATTTATATATAAATGTGTACATATATATATATAAAC [XGTACX_site7592]	7.96 ± 0.48
ATTGTAAGTAAACACACACACATATATCTGTATTTA [CACACA_site4542]	7.82 ± 0.47
CTGAAATTAACAAAAGTGCATAAAAATAAAAAATAT [GTGCAC_site9652]	10.8 ± 0.38
TACCATGTTCAAATTACACACATATAATGCAATATA [CACACA_site7034]	8.69 ± 0.35
GTTCTACAAGCCACTGCATGCTGATATAGAATAAAT [TGCATGCA_site138]	8.16 ± 0.38
TCATATATCCTTATCACACATATAATAAATTCCCTT [CACACA_site4457]	7.98 ± 0.55
TTCTTTGCTTTTCAAACACACAAAAGTTATTATAGT [CACACA_site6390]	8.02 ± 0.52
GGAATTGAAAAATCAGCACACACACTAATACATACA [CACACA_site9059]	8.16 ± 0.47
AATAATTGTTAAAGGTGTACAATACCTACATAAGAA [XGTACX_site4215]	8.31 ± 0.49
AAATGGCAATAATGGACACACAAATGTTGTTATATA [CACACA_site2819]	7.68 ± 0.61
AAAAAGGAAATTTACACACACATATAATATACATTA [CACACA_site3296]	7.67 ± 0.49
ATTTACCAGACCATATGTACATACATAAAACACACA [XGTACX_site3788]	8.27 ± 0.38
TACACAAGGGGAAAAATATATATATATATATATATA [TGCATGCA_negctrl_site217]	9.39 ± 0.54
TAAAAAATTTTATATTCACACACATATATATATATA [CACACA_site8109]	9.31 ± 0.23
TAAAAGTATATATATACACACATAAATATATATGTA [CACACA_site663]	7.43 ± 0.36
